# Publication PMC6919601, “Identification of Plasmodium dipeptidyl aminopeptidase allosteric inhibitors by high throughput screening” (PLoS ONE, 2019)
# In all, about 110,000 compounds went through this assay and about 230 (0.21%) showed an effect of 50% or more. Some of the results follow.
# Molecular target: DPAP1 (Plasmodium falciparum, UniProt Q8IIJ9)
# Assay: primary screen, percent inhibition; read by cleavage of a fluorogenic dipeptide substrate; higher = more effect of the substance
# Design: species or system P. falciparum D10 trophozoite lysates; single well
# 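Note: 30 min substrate incubation versus DMSO and 10 µM JCP410 controls.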
# Chain of DPAP1 (Q8IIJ9 whole entry, looked up): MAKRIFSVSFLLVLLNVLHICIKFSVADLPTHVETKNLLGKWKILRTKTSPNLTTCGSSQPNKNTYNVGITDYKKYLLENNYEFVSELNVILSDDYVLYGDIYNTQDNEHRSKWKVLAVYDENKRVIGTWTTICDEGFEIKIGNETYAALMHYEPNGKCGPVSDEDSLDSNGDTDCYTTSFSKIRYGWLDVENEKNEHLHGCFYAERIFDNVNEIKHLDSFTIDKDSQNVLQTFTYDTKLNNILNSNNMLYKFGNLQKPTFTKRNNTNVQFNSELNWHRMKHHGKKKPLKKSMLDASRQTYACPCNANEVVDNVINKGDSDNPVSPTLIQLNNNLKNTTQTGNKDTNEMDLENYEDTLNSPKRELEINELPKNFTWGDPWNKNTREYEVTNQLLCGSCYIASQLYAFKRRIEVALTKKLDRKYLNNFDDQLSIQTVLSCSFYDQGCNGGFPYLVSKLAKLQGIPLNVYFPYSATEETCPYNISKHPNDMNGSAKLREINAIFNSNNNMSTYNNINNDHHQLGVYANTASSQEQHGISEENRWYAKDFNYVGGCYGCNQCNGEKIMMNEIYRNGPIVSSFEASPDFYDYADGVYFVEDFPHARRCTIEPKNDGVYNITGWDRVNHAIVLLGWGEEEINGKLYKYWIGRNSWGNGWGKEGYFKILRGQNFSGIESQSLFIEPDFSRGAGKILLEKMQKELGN
row,Structure (SMILES),% Inhibition @ 10 uM [%]
1,CCc1ccc(OC(C)C(=O)N(Cc2ccccc2)C2CCS(=O)(=O)C2)cc1 (stereo not drawn),-4.85
2,NC(=O)COc1ccccc1/C=C1/SC(=O)N(CC(=O)N2CCCCC2)C1=O,2.17
3,COc1ccccc1C(=O)Nc1ccc2ncccc2c1,2.7
4,O=C(Nc1ccc(F)cc1)NC1CCCCC1,-5.84
5,CCN(CC)C(=O)c1cc2cc(Br)ccc2oc1=O,-1.25
6,COc1cc(-c2nnc3sc(/C=C/c4ccco4)nn23)cc(OC)c1OC,6.01
7,Cc1cccc(C(=O)N2CCN(C/C=C/c3ccccc3)CC2)c1,1.4
8,COc1cc(OC)cc(-n2nnc(-c3nc(-c4cccnc4)no3)c2N)c1,3.98
9,c1ccc(Oc2ncnc3sc4c(c23)CCCC4)cc1,-0.0267
10,O=C1OC(c2ccc(Oc3ccccc3)cc2)=C/C1=C\c1ccco1,-0.169
11,O=C(c1cccnc1)N1CCN(Cc2ccc3ccccc3c2)CC1,7.1
12,Cc1ccc(/C(O)=C/c2nc3ccccc3oc2=O)cc1,-4.43
13,CCc1ccc(-n2nnc(-c3nsc(NC(=O)c4cccs4)n3)c2C)cc1,5.88
14,CCc1ccccc1-n1nnc(-c2ccccc2)n1,-1.71
15,COc1ccccc1CNC(=O)CCc1nnc2n(Cc3ccccc3)c(=O)c3ccccc3n12,-2.42
16,c1ccc(N2CCN(Cc3c[nH]c4ccccc34)CC2)cc1,12.3
17,COc1ccc2sc3ccccc3c(=O)c2c1OC,-1.32
18,CC1(C)Oc2ccc3ccc(=O)oc3c2-c2cnoc21,3.73
19,Cc1[nH]c2ccccc2c1SCCNC(=O)c1ccc(OC(C)C)cc1,-4.86
20,COc1ccc(OC)c(CN2CCN(Cc3ccccc3OC)CC2)c1,-6.59
21,CCOc1ccccc1N1CCN(Cc2ccc(Br)s2)CC1,-7.5
22,Cc1c2cnn(CC(=O)NCCN(C)C)c(=O)c2c(C)n1Cc1ccccc1Cl,-0.447
23,CCOC(=O)N1CCN(c2c(N3CCCC(C)C3)c(=O)c2=O)CC1 (stereo not drawn),-1.44
24,COCCNC(=O)c1cc2n(n1)C(C(F)(F)F)CC(c1ccc(F)cc1)N2 (stereo not drawn),0.751
25,CCOC(=O)c1c(NC(=O)COc2cc(C)c(Cl)c(C)c2)sc(C(C)=O)c1C,12.5
26,O=C(COc1ccccc1)Nc1ccc(Cl)cn1,2.32

row,Structure (SMILES),% Inhibition @ 10 uM [%]
1,CCOc1ccc(N/C=C2\C(=O)CNC2=O)cc1,1.35
2,C=CCO/C(O)=C1/C(C)=Nc2ncnn2C1c1ccc(OC)c(Br)c1 (stereo not drawn),1.73
3,CC(C)CN(CC(C)C)c1nc2c(S(=O)(=O)c3ccccc3)nnn2c2ccccc12,1.51
4,O=C1ON=C(c2ccccc2)/C1=C/c1ccc(Br)s1,-2.87
5,CCSc1ncc(Cl)c(C(=O)NCc2ccc3c(c2)OCO3)n1,-2.85
6,O=C(CN1C(=O)CSc2ncccc21)NCCCN1CCC(Cc2ccccc2)CC1,2.65
7,CC(=O)c1ccc(NC(=O)COc2ccc(Cl)cc2Br)cc1,4.39
8,CC(C)Cc1ccc(C(C)C(=O)N2CCN(C)CC2)cc1 (stereo not drawn),-0.446
9,CC(=O)Nc1ccc(N(C)C)c(C(C)(C)C)c1,-6.41
10,CCOC(=O)c1c(-c2ccccc2)csc1NC(=O)c1cc(CC(C)C)on1,3.55
11,Cc1nc(N2CCN(c3ccccn3)CC2)c2c(C)c(C(=O)N3CC(C)CC(C)C3)sc2n1 (stereo not drawn),5.59
12,CCOc1nc(-c2cccc(OC)c2)ccc1-c1noc(C)n1,-3.13
13,CN1CCC(N(C)Cc2ccc([N+](=O)[O-])o2)CC1,-0.828
14,Cc1ccc(CCNC(=O)C2CCN(S(=O)(=O)N3CCCCC3)CC2)cc1,-3.12
15,Cc1ccsc1/C=C1\SC(c2ccccc2)=NC1=O,16
16,COC(=O)c1nnn(-c2ccc(OC)cc2)c1C(=O)OC,3.48
17,CCN(CC)CCCNC(=O)C1c2ccccc2C(=O)N(CCOC)C1c1cn(C)c2ccccc12 (stereo not drawn),2.35
18,O=C(CN1C(=O)C2C3CCC(C3)C2C1=O)Nc1ccccc1C(=O)O (stereo not drawn),-0.425
19,CCCc1cc(O)n2nc(-c3ccc(OC)cc3)cc2n1,1.52
20,CCn1c2ccccc2c2cc(CN3CC(C)CC(C)C3)ccc21 (stereo not drawn),-2.34
21,CC(C)(C)c1cc(NC(=O)CSc2n[nH]c(N)n2)cc(C(C)(C)C)c1,0.823
22,Cc1cc(C)c2nc(C)c(CN(C)C3CCCCC3)c(O)c2c1,0.487
23,COc1ccc(C(=O)Nc2sc3c(c2C(=O)O)CC(C)(C)OC3)cc1,1.61
24,CC1=C(C#N)C(C(F)(F)F)(C(F)(F)F)NC(c2ccncc2)=N1,-3.19
25,O=C(C1=C(O)C(=O)N(c2ccc(CCO)cc2)C1c1cccnc1)c1ccco1 (stereo not drawn),-3.25
